The list shows a part of the results.
Legend:
Test in all cases: glycan array binding signal (z-score within array); higher = stronger binding
Details in all cases: glycan notation: IUPAC condensed, linker removed
[1] = biological target: Man(a1-2)Man(a1-2)Man(a1-6)[Man(a1-3)]Man
How it was run: (§1)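 The Consortium for Functional Glycomics database supplied 3228 glycan arrays, of which those lacking an available protein sequence were dropped. The binding signal, a within-array Z-score, was averaged across arrays of the same protein sequence and across linkers. Negative scores can be read as non-binding.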

[2] = biological target: Man(a1-2)Man(a1-3)Man
How it was run: as §1

[3] = biological target: Man(a1-2)Man(a1-3)[Man(a1-2)Man(a1-6)]Man
How it was run: as §1

[4] = biological target: Man(a1-2)Man(a1-3)[Man(a1-3)[Man(a1-6)]Man(a1-6)]Man(b1-4)GlcNAc(b1-4)GlcNAc
How it was run: as §1

[5] = biological target: Man(a1-2)Man(a1-3)[Man(a1-6)]Man(a1-6)[Man(a1-2)Man(a1-3)]Man(b1-4)GlcNAc(b1-4)GlcNAc
How it was run: as §1

[6] = biological target: Man(a1-3)[Man(a1-6)]Man
How it was run: as §1

[7] = biological target: Man(a1-3)[Man(a1-6)]Man(a1-6)[Man(a1-3)]Man(b1-4)GlcNAc(b1-4)GlcNAc
How it was run: as §1

[8] = biological target: Man(a1-3)[Man(a1-6)]Man(b1-4)GlcNAc(b1-4)GlcNAc
How it was run: as §1

[9] = biological target: Man(b1-4)GlcNAc
How it was run: as §1

[10] = biological target: Neu5Ac(a2-3)Gal
How it was run: as §1

[11] = biological target: Neu5Ac(a2-3)Gal(b1-3)GalNAc
How it was run: as §1

[12] = biological target: Neu5Ac(a2-3)Gal(b1-3)GalNAc(b1-3)Gal(a1-4)Gal(b1-4)Glc
How it was run: as §1

[13] = biological target: Neu5Ac(a2-3)Gal(b1-3)GalNAc(b1-4)[Neu5Ac(a2-3)]Gal(b1-4)Glc
How it was run: as §1

[14] = biological target: Neu5Ac(a2-3)Gal(b1-3)GalNAc6S
How it was run: as §1

[15] = biological target: Neu5Ac(a2-3)Gal(b1-3)GlcNAc
How it was run: as §1

[16] = biological target: Neu5Ac(a2-3)Gal(b1-3)GlcNAc(b1-3)Gal(b1-3)GlcNAc
How it was run: as §1

[17] = biological target: Neu5Ac(a2-3)Gal(b1-3)GlcNAc(b1-3)Gal(b1-4)GlcNAc
How it was run: as §1

[18] = biological target: Neu5Ac(a2-3)Gal(b1-3)GlcNAc6S
How it was run: as §1

[19] = biological target: Neu5Ac(a2-3)Gal(b1-3)[Fuc(a1-4)]GlcNAc
How it was run: as §1

[20] = biological target: Neu5Ac(a2-3)Gal(b1-3)[Fuc(a1-4)]GlcNAc(b1-3)Gal(b1-4)[Fuc(a1-3)]GlcNAc
How it was run: as §1

[21] = biological target: Neu5Ac(a2-3)Gal(b1-3)[Neu5Ac(a2-3)Gal(b1-4)]GlcNAc
How it was run: as §1

[22] = biological target: Neu5Ac(a2-3)Gal(b1-3)[Neu5Ac(a2-6)]GalNAc
How it was run: as §1

[23] = biological target: Neu5Ac(a2-3)Gal(b1-4)Glc
How it was run: as §1

[24] = biological target: Neu5Ac(a2-3)Gal(b1-4)GlcNAc
How it was run: as §1

[25] = biological target: Neu5Ac(a2-3)Gal(b1-4)GlcNAc(b1-3)Gal(b1-3)GlcNAc
How it was run: as §1

[26] = biological target: Neu5Ac(a2-3)Gal(b1-4)GlcNAc(b1-3)Gal(b1-4)GlcNAc
How it was run: as §1

[27] = biological target: Neu5Ac(a2-3)Gal(b1-4)GlcNAc(b1-3)Gal(b1-4)GlcNAc(b1-3)Gal(b1-4)GlcNAc
How it was run: as §1

[28] = biological target: Neu5Ac(a2-3)Gal(b1-4)GlcNAc(b1-3)Gal(b1-4)[Fuc(a1-3)]GlcNAc
How it was run: as §1

[29] = biological target: Neu5Ac(a2-3)Gal(b1-4)GlcNAc(b1-6)[Gal(b1-3)]GalNAc
How it was run: as §1

[30] = biological target: Neu5Ac(a2-3)Gal(b1-4)GlcNAc6S
How it was run: as §1

[31] = biological target: Neu5Ac(a2-3)Gal(b1-4)[Fuc(a1-3)]GlcNAc
How it was run: as §1

[32] = biological target: Neu5Ac(a2-3)Gal(b1-4)[Fuc(a1-3)]GlcNAc(b1-3)Gal
How it was run: as §1

[33] = biological target: Neu5Ac(a2-3)Gal(b1-4)[Fuc(a1-3)]GlcNAc(b1-3)Gal(b1-4)GlcNAc
How it was run: as §1

[34] = biological target: Neu5Ac(a2-3)Gal(b1-4)[Fuc(a1-3)]GlcNAc(b1-3)Gal(b1-4)[Fuc(a1-3)]GlcNAc(b1-3)Gal(b1-4)[Fuc(a1-3)]GlcNAc
How it was run: as §1

[35] = biological target: Neu5Ac(a2-3)Gal(b1-4)[Fuc(a1-3)]GlcNAc6S
How it was run: as §1

[36] = biological target: Neu5Ac(a2-3)Gal6S(b1-4)GlcNAc
How it was run: as §1

[37] = biological target: Neu5Ac(a2-3)Gal6S(b1-4)[Fuc(a1-3)]GlcNAc
How it was run: as §1

[38] = biological target: Neu5Ac(a2-3)GalNAc
How it was run: as §1

B1: Annexin-A1 (Mus musculus), P10107 (protein)
chain: MAMVSEFLKQARFLENQEQEYVQAVKSYKGGPGSAVSPYPSFNVSSDVAALHKAIMVKGVDEATIIDILTKRTNAQRQQIKAAYLQENGKPLDEVLRKALTGHLEEVVLAMLKTPAQFDADELRGAMKGLGTDEDTLIEILTTRSNEQIREINRVYREELKRDLAKDITSDTSGDFRKALLALAKGDRCQDLSVNQDLADTDARALYEAGERRKGTDVNVFTTILTSRSFPHLRRVFQNYGKYSQHDMNKALDLELKGDIEKCLTTIVKCATSTPAFFAEKLYEAMKGAGTRHKALIRIMVSRSEIDMNEIKVFYQKKYGISLCQAILDETKGDYEKILVALCGGN
[1]
  glycan array binding signal (z-score): -0.514
[2]
  glycan array binding signal (z-score): 0.743
[3]
  glycan array binding signal (z-score): -0.136
[4]
  glycan array binding signal (z-score): 0.179
[5]
  glycan array binding signal (z-score): -0.41
[6]
  glycan array binding signal (z-score): -0.165
[7]
  glycan array binding signal (z-score): -0.176
[8]
  glycan array binding signal (z-score): -0.566
[9]
  glycan array binding signal (z-score): -0.616
[10]
  glycan array binding signal (z-score): 0.45
[11]
  glycan array binding signal (z-score): -0.573
[12]
  glycan array binding signal (z-score): -0.275
[13]
  glycan array binding signal (z-score): -0.443
[14]
  glycan array binding signal (z-score): 0.599
[15]
  glycan array binding signal (z-score): -0.109
[16]
  glycan array binding signal (z-score): -0.048
[17]
  glycan array binding signal (z-score): -0.609
[18]
  glycan array binding signal (z-score): 0.594
[19]
  glycan array binding signal (z-score): -0.681
[20]
  glycan array binding signal (z-score): 0.009
[21]
  glycan array binding signal (z-score): -0.501
[22]
  glycan array binding signal (z-score): -0.287
[23]
  glycan array binding signal (z-score): 0.108
[24]
  glycan array binding signal (z-score): -0.36
[25]
  glycan array binding signal (z-score): -0.481
[26]
  glycan array binding signal (z-score): -0.245
[27]
  glycan array binding signal (z-score): -0.611
[28]
  glycan array binding signal (z-score): -0.465
[29]
  glycan array binding signal (z-score): -0.622
[30]
  glycan array binding signal (z-score): -0.058
[31]
  glycan array binding signal (z-score): -0.252
[32]
  glycan array binding signal (z-score): -0.758
[33]
  glycan array binding signal (z-score): -0.086
[34]
  glycan array binding signal (z-score): -0.512
[35]
  glycan array binding signal (z-score): 0.188
[36]
  glycan array binding signal (z-score): -0.076
[37]
  glycan array binding signal (z-score): -0.632
[38]
  glycan array binding signal (z-score): -0.778
